Inhibition data for 62 compounds are collected here from PubChem BioAssay AID485344 (National Center for Advancing Translational Sciences (NCATS), 2010).

Structures are written as SMILES. Screen size: about 340,000 compounds; about 6,900 (2%) were called active. Cut-off read from the data, not from the text of the source: active = inhibition above about 30%; inactive = below that, where a call was filed. The list shows a part of the results, in another mix than the full data. The source gives no active or inactive call for entries shown without one.

For the assay, the target named is D(2) dopamine receptor (Homo sapiens) (UniProt P14416). As to the kind of experiment: HTS Assay for Allosteric Antagonists of the Human D2 Dopamine Receptor: Primary Screen for Antagonists. Note: 0% is about no effect. The note with it: HEK293 TREx D2 cells, calcium flux, dopamine EC80; at 10 µM; stronger effect = higher value. Summed up: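 Read-out: kinetic calcium fluorescence (1 cycle/s) in inducible HEK293 T-REx D2 cells after an EC80 dopamine addition that followed 180 s compound preincubation. Loss of the dopamine response indicates antagonism.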
UniProt P14416, sequence (P14416 whole entry, looked up): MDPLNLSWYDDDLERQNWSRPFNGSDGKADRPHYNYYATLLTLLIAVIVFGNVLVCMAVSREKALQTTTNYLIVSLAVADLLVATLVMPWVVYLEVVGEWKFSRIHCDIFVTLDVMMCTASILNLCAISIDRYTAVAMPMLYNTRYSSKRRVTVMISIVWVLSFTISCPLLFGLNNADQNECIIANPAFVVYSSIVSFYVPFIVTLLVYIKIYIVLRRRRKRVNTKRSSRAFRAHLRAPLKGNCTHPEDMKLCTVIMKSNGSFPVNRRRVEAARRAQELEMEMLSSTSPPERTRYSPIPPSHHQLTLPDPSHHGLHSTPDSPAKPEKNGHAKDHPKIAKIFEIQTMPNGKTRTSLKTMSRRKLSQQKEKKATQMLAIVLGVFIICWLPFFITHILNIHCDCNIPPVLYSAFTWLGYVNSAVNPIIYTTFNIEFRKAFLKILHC
Turning to `C=C(C)Cn1c(SCC(=O)Nc2cccc(C)c2)nc2sc3c(c2c1=O)CCCC3`, the inhibition was determined as 25.2%. For `COc1ccc(C(=O)c2c(C(F)(F)F)oc3c2C(=O)c2ccccc2C3=O)cc1OC`, the inhibition is active: 30.6%. For `Cc1cccc(N(CC(=O)NCCSc2ccc(Cl)cc2)S(C)(=O)=O)c1C`, the inhibition was found to be 4.21%. Take `Cc1ccc2c(c1)N(C(=O)N1CCC(C(=O)NCc3cccs3)CC1)CC(C)O2` (configuration not stated): the inhibition was -15.8%.

In the case of `COc1ccc(CNC(=O)c2cc3c(=O)[nH]c4ccccc4c3n2C)c(OC)c1`, the inhibition came to 5.31%. On to `COc1ccc(CCNC(=O)CCCn2c(=O)c3ccccc3n(CC(=O)Nc3ccc(C)cc3Cl)c2=O)cc1OC`, for which the inhibition was -10.5%.

Regarding `CC(NC(=O)CN1C(=O)COc2ccc(Cl)cc21)c1ccccc1` (configuration not stated), the inhibition worked out at 27.8%. On to `CCOc1cc(C2CC(=O)Nc3nc(SCc4ccccc4)[nH]c(=O)c32)ccc1O` (configuration not stated), for which the inhibition is 5.31%.

Take `O=C(Nc1cccc2cccnc12)c1ccc(F)cc1`: the inhibition was determined as 5.91%. As to `CCc1ccc2oc(-c3ccc(NC(=O)c4cc(OC)c(OC)c(OC)c4)cc3)nc2c1`, the inhibition was -1.89%. In the case of `Cc1ccccc1-c1nnc(C2CCN(S(=O)(=O)c3ccc(Cl)cc3)CC2)o1`, the inhibition was -3.62%. For `CCc1ccc(CNC(=O)CCCN2C(=O)c3cccnc3Oc3ccc(Cl)cc32)cc1`, the inhibition came to 9.21%.

In the case of `Cn1cnc(S(=O)(=O)N2CCC(C(=O)NCc3ccc(Cl)cc3)CC2)c1`, the inhibition was -0.003%.

As for `COc1ccc(CNC(=O)c2cc3c(=O)n(C)c4ccccc4c3n2C)cc1`, the inhibition was -0.149%. The value for `COCCNC(=O)c1nn(-c2ccc(Cl)cc2)nc1CO` was -26.8%; that for `O=C(CSc1ccccc1)NCc1ccc2c(c1)CCN2C(=O)c1ccc(F)cc1` was -22.1%; that for `O=C(Cc1ccccc1)N(Cc1cccnc1)c1nc2ccc(F)cc2s1` was -0.236%. On to `CCCSCCCNC(=O)c1ccc2c(c1)nc1n2CCCCC1`, for which the inhibition was determined as 7.68%. As to `Cc1ccc(Nc2cc(C)c(C#N)c3nc4ccccc4n23)cc1Cl`, the inhibition was -4.8%. Take `CC(C)c1cc(-c2nc(-c3ccccc3)no2)n[nH]1`: the inhibition was -1.28%. On to `Nc1cc(Cl)ccc1C(=O)OCC(=O)NC1CCCCCCC1`, for which the inhibition is active: 34.5%. For `COc1ccc(S(=O)(=O)N2CCN(Cc3ccc4c(c3)OCO4)CC2)cc1OC`, the inhibition came out at 10.4%. `CN(CC(=O)Nc1ccccc1Cl)S(=O)(=O)c1ccc(C(=O)N2CCOCC2)s1`: the inhibition was 16%.

As to `CC(C)c1ccccc1NC(=O)CN1C(=O)c2cccc3cccc1c23`, the inhibition was determined as 2.34%. Next, `CCC(=O)Nc1ccc2nc(SCc3ccc(C)cc3)sc2c1`: -13.3%; `Cc1nc(N2CCCC2)c2c(C(=O)N3CCN(c4cccc(C)c4C)CC3)c(C)oc2n1`: 3.08%; `O=C(CSc1nc(-c2ccccc2)[nH]c1-c1ccccc1)Nc1ccc2c(c1)OCCO2`: 16.5%. The value for `CC1(C)Cc2cccc(C(=O)NC3CCN(Cc4ccccc4)CC3)c2O1` was active: 73.4%; that for `CC(C)(C)c1ccc(S(=O)(=O)NCc2nc3cccnc3n2Cc2ccccc2Cl)cc1` was -5.3%. The value for `Cc1ccc(CNS(=O)(=O)c2c(C)nc3scc(C)n3c2=O)cc1` was 3.34%; that for `Cc1ccc(-c2cc(C(=O)Nc3c(C(=O)c4ccccc4)oc4ccccc34)no2)cc1F` was -11%.

As for `Cc1ccc(Cc2nc3ccccc3nc2SCC(=O)Nc2cccc(C(F)(F)F)c2)cc1`, the inhibition came out at 6.41%. On to `COC(=O)c1cnn(-c2ccc(C(=O)Nc3ccc(C(C)=O)cc3)cc2)c1N`, for which the inhibition was found to be 7.25%.

As for `O=C(CN1CCSc2ccccc21)N1CCN(c2cccc(Cl)c2)CC1`, the inhibition was 11.3%.

Turning to `Cc1ccc(-n2ncc3c(NC4CCCCC4)ncnc32)cc1`, the inhibition is 16.1%.

As to `COc1ccc(CC2(CO)CCN(Cc3cnn(-c4ccccc4OC)c3)CC2)cc1`, the inhibition was active: 79%. `CCOc1ccc(CNC(=O)Cn2nc(C)c3nn(-c4ccc(Cl)cc4)c(C)c3c2=O)cc1OC`: the inhibition turned out to be 8.36%. For `C[C@H](NC(=O)N1CCn2c1nc1ccccc12)C(=O)NC1CC1`, the inhibition was active: 67.1%. For the compound `CCC(C)NC(=O)c1sc2nc(C)c(C(=O)Nc3ccc(C)cc3C)c(-c3ccc(Cl)cc3)c2c1N` (configuration not stated), the inhibition was determined as 5.58%. Regarding `COc1ccc(CNCc2c(C(=O)O)c(C)n(Cc3ccc(Cl)cc3)c2C)c(OC)c1`, the inhibition was -14.1%.

For the compound `CC(=O)c1cc(-c2ccc(F)cc2)n(CCC(=O)Nc2nc3c(C)cccc3s2)c1C`, the inhibition is -4.76%.

With `Cc1ccc2c(c1)c1c(c(=O)n(-c3ccccc3C)c(=O)n1CC(=O)NCCC1=CCCCC1)n2C`, the inhibition turned out to be 4.36%. Next, `Cc1nn(CC(=O)NCCc2ccccc2Cl)c(=O)c2nn(-c3ccccc3)c(C)c12`: -1.54%; `O=S(=O)(c1ccccc1)N1CCC(c2ccncc2)CC1`: -20.1%; `COC(=O)C1=CO[C@@H](C)[C@H]2CN3CCc4c([nH]c5ccccc45)[C@@H]3C[C@H]12`: active: 71.1%.

For the compound `CCc1ccc(NC(=O)c2cc3c(=O)n(Cc4cccs4)ccc3nc2C)cc1`, the inhibition is -2.78%.

On to `COc1ccc(Cl)cc1NC(=O)CN(c1cc(C)cc(C)c1)S(=O)(=O)c1c(C)n[nH]c1C`, for which the inhibition was 2.43%. The value for `COc1cc(-c2noc(C3CC(=O)N(c4ccc5c(c4)OCCO5)C3)n2)cc(OC)c1OC` (configuration not stated) was -2%; that for `O=C(Nc1cc(F)ccc1F)C1COc2ccccc2C1` (configuration not stated) was 11.6%; that for `Cc1ccc(-c2cc(C(=O)O)n(Cc3ccccc3)n2)cc1` was -0.0793%. For the compound `Cc1ccc(S(=O)(=O)c2nc(-c3ccccc3)oc2N2CCN(c3ccccc3)CC2)cc1`, the inhibition is -1.24%. As to `COc1ccc(C(=O)Nc2ccc(-n3nncc3-c3ccc(OC)c(OC)c3)cc2)cc1`, the inhibition was -5.18%. As for `COc1cccc(OC)c1-c1nn(-c2ncc(C(F)(F)F)cc2Cl)c(=O)o1`, the inhibition is active: 37.7%. Turning to `Cc1ccc(-n2c3c(c(=O)[nH]c2=O)C(NC(=O)c2ccccc2F)(C(F)(F)F)C(=O)N3)cc1C` (configuration not stated), the inhibition came to 8.41%. The value for `COc1ccc(-c2cc(C(=O)Nc3c(Cl)cccc3Cl)no2)cc1OC` was -21.3%; that for `CCN(CCCNC(=O)c1cc2c(=O)n(CC)c3ccccc3c2s1)c1cccc(C)c1` was -18.5%. Regarding `CCc1ccc(N2CCn3c2nc2c3c(=O)n(Cc3ccc(F)cc3)c(=O)n2C)cc1`, the inhibition is 18.1%. On to `O=C(C[n+]1ccccc1)N/N=C/c1ccccc1Cl`, for which the inhibition was active: 35.9%. Take `CCc1ccccc1NC(=O)C1CCCN(S(=O)(=O)c2cccc3nsnc23)C1` (configuration not stated): the inhibition turned out to be 11.8%.

Take `COc1ccc(C(=O)N/C(=C\c2cc(OC)c(OC)cc2[N+](=O)[O-])C(=O)NCCO)cc1`: the inhibition was active: 38.7%. In the case of `COc1ccc(Nc2cc(C)nc(-n3nc(C)cc3C)n2)cc1Cl`, the inhibition is 8.97%. Take `CCOc1ccc(-c2nc3c(C#N)c[nH]n3c2NC2CCCC2)cc1`: the inhibition was determined as 19.3%.

Usually inhibition stands for the drop in the measured response relative to a control, in per cent.
